# Assay results from the supplement of paper PMC8183993.
# Where “and” joins values, the source holds several entries; their conditions need not be identical. Identical values can stand only once. Counter-ions that a name gives are not always drawn. ± gives the standard deviation of the averaged measurements. In all, about 3,200 compounds were measured (“nuclei count (viability) relative to DMSO”: median about 99, lowest 2% from about 16 on). This is one part of the list.
# Tested on: U2OS
# Experiment: nuclei count (viability) relative to DMSO (% of DMSO); higher = more viable cells
# Conditions: 10 µM; 24 h
# Method: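 Primary image-based screen in U2OS cells: compounds at 10 uM for 24 h, then a 1 h o-propargyl-puromycin (OPP) pulse, click labelling, and high-throughput microscopy. Mean cytoplasmic OPP intensity and nuclei count were normalised to DMSO wells within each plate (DMSO = 100) and averaged over triplicate plates.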
row,Compound,nuclei count
1,Cc1cc(SCc2sc(-c3ccc(C(F)(F)F)c(F)c3)nc2C)ccc1OCC(=O)O,98.5
2,NC(=O)C[S+]([O-])C(c1ccccc1)c1ccccc1 (configuration not stated) [Modafinil],110
3,CC(=O)NC1CCSC1=O (racemic) [N-Acetyl-DL-homocysteine Thiolactone],102
4,CC(Cc1ccccc1)NCCC(c1ccccc1)c1ccccc1 (configuration not stated) [Prenylamine lactate],100
5,C[C@]12CC[C@H](O)C[C@H]1CC[C@@H]1[C@@H]2C[C@@H](O)[C@]2(C)[C@@H](C3=CC(=O)OC3)CC[C@]12O [Digoxigenin],26.9
6,CN(C(=O)Cc1ccccc1)C(CN1CCCC1)c1ccccc1 (configuration not stated) [N-MPPP Hydrochloride],87.9
7,O=C(O[C@H]1C[N+]2(CCCOc3ccccc3)CCC1CC2)C(O)(c1cccs1)c1cccs1 [Aclidinium Bromide],102
8,Clc1ccccc1C(c1ccccc1)(c1ccccc1)n1cccn1,102
9,Clc1ccc(C(OCCN2CCCCC2)c2ccccc2)cc1 (configuration not stated) [Cloperastine hydrochloride],102
10,CN1CCN(C(=O)OC2c3nccnc3C(=O)N2c2ccc(Cl)cn2)CC1 (configuration not stated) [Zopiclone],105
11,CN[C@@H]1C[C@H]2O[C@@](C)([C@@H]1OC)n1c3ccccc3c3c4c(c5c6ccccc6n2c5c31)C(=O)NC4 [Staurosporine],10.1
12,CN1[C@@H]2CC[C@H]1C[C@@H](OC1c3ccccc3CCc3ccccc31)C2 [Deptropine citrate],97.9
13,C[C@@H]1O[C@@H](O[C@H]2C[C@@H](O)[C@]3(CO)[C@H]4[C@H](O)C[C@]5(C)[C@@H](C6=CC(=O)OC6)CC[C@]5(O)[C@@H]4CC[C@]3(O)C2)[C@H](O)[C@H](O)[C@H]1O [Ouabain],19.9 ± 3.4
14,"NCC(O)c1ccc(O)cc1 (racemic) [(+,-)-Octopamine hydrochloride]",109
15,Cc1nc(N)sc1CCN [Amthamine dihydrobromide],102
16,C[N+]1(C)[C@@H]2C[C@@H](OC(=O)[C@H](CO)c3ccccc3)C[C@H]1[C@@H]1O[C@@H]12 [Methscopolamine (Pamine)],104
17,C[C@]12CC[C@H](O)C[C@@H]1CC[C@@H]1[C@@H]2CC[C@]2(C)C(=O)CC[C@@H]12,98.6
18,C[C@]12CC[C@H](O)C[C@@H]1CC[C@@H]1[C@@H]2CC[C@]2(C)C(=O)CC[C@@H]12 [Epiandrosterone],102
19,Cn1cc(C(=O)C(=O)N[C@H]2CN3CCC2CC3)c2ccccc21,102
20,CCn1cc(C(=O)O)c(=O)c2cc3c(cc21)OCO3 [Oxolinic acid],97.5
21,N[C@@]1(C(=O)O)CC[C@@H](C(=O)O)C1,93.1
22,CN(C)C(=O)Oc1cc(OC(=O)N(C)C)cc(C(O)CNC(C)(C)C)c1 (configuration not stated) [Bambuterol hydrochloride],95.4
23,CCN(C)C(=O)Oc1cccc([C@H](C)N(C)C)c1 [Rivastigmine],110

row,Compound,nuclei count
1,CC[C@@]1([C@@H]2O[C@@H]([C@H]3O[C@@](O)(CO)[C@H](C)C[C@@H]3C)C[C@@H]2C)CC[C@H]([C@]2(C)CC[C@]3(C[C@H](O)[C@@H](C)[C@@H]([C@@H](C)[C@@H](OC)[C@H](C)C(=O)O)O3)O2)O1 [Monensin sodium salt],101
2,CC[C@@]1([C@@H]2O[C@@H]([C@H]3O[C@@](O)(CO)[C@H](C)C[C@@H]3C)C[C@@H]2C)CC[C@H]([C@]2(C)CC[C@]3(C[C@H](O)[C@@H](C)[C@@H]([C@@H](C)[C@@H](OC)[C@H](C)C(=O)O)O3)O2)O1 [Monensin sodium salt (Coban)],89.7
3,"CCC1(c2ccc(N)cc2)CCC(=O)NC1=O (configuration not stated) [Glutethimide, para-amino]",99.8
4,C=C(C)[C@H]1O[C@H]2CC[C@@]3(C)[C@@](O)(CC[C@H]4[C@@H]5OC(C)(C)[C@H]6C[C@@H]7C(=C)Cc8c(Cl)cc9[nH]c(c5c9c8[C@@]76O)[C@@]43C)[C@@]23O[C@H]3[C@H]1O [Penitrem A],62 ± 25
5,CCN1C[C@]2(COC(=O)c3ccccc3N3C(=O)C[C@H](C)C3=O)CC[C@H](OC)[C@@]34[C@@H]5C[C@H]6[C@H](OC)[C@@H]5[C@](O)(C[C@@H]6OC)[C@](O)([C@@H](OC)[C@H]23)[C@@H]14 [Methyllycaconitine citrate],109
6,CNc1ccc2oc(C[C@H]3O[C@@]4(CC[C@H]3C)O[C@H]([C@H](C)C(=O)c3ccc[nH]3)[C@H](C)C[C@H]4C)nc2c1C(=O)O,34.1 and 33.8
7,O=C(O)c1ccc2[nH]cc(CCCCN3CC=C(c4ccccc4)CC3)c2c1 [Carmoxirole hydrochloride],91.5
8,c1ccc2c(c1)[I+]c1ccccc1-2 [Diphenyleneiodonium chloride],45.4
9,CCN1C[C@]2(COC)[C@H](O)C[C@H](OC)[C@@]34[C@@H]5C[C@@]6(O)[C@H](OC(=O)c7ccccc7)[C@@H]5[C@@](OC(C)=O)([C@@H]([C@H](OC)[C@H]23)[C@@H]14)[C@@H](O)[C@@H]6OC [Aconitine],86.9
10,Cc1ccc(C[N+](C)(C)C)o1 [5-Methylfurmethiodide],91.6
11,N#CC(C#N)=Cc1ccc(O)cc1 [Tyrphostin 8],102
12,CC(C)(Cc1c[nH]c2ccc(Cl)cc12)NCCOc1ccccc1OCC1CC1,11.3
13,CCCN(CCC)C1CCc2cccc(O)c2C1 (configuration not stated) [8-Hydroxy-DPAT hydrobromide],106
14,COC(=O)/C=C/C(=O)N[C@@H]1CC[C@@]2(O)[C@H]3Cc4ccc(O)c5c4[C@@]2(CCN3CC2CC2)[C@H]1O5 [_-Funaltrexamine hydrochloride],85.7
15,O[C@@H]1CCCC[C@H]1N1CCC(c2ccccc2)CC1 [L(-)-vesamicol hydrochloride],105
16,O=C1CCCN1CC#CCN1CCCC1 [Oxotremorine sesquifumarate],104
17,CCC(=O)CCCCC[C@@H]1NC(=O)[C@H]2CCCCN2C(=O)[C@H]([C@@H](C)CC)NC(=O)[C@H](Cc2cn(OC)c3ccccc23)NC1=O [Apicidin],54.1 ± 37
18,CCN(CC)C(C)C(=O)c1ccccc1 (configuration not stated) [Amfepramone hydrochloride],107
19,C[C@]12N[C@H](Cc3ccccc31)c1ccccc12 [Dizocilpine maleate],99.3
20,C[N+]1([O-])[C@@H]2C[C@@H](OC(=O)[C@H](CO)c3ccccc3)C[C@H]1[C@@H]1O[C@@H]12 (some centres not stated) [Scopolamin-N-oxide hydrobromide],101
21,Oc1cc(Cl)ccc1Oc1ccc(Cl)cc1Cl [Triclosan],107
22,CC1(C)C(C=C(Cl)Cl)C1C(=O)OC(C#N)c1cccc(Oc2ccccc2)c1 (configuration not stated) [Cypermethrin],105
23,CC(C)n1cnc2c(C(=O)N[C@H]3CN4CCC3CC4)cc(Cl)cc21,96.2

row,Compound,nuclei count
1,C[C@](O)(COc1ccc(C#N)cc1)C(=O)Nc1ccc(C#N)c(C(F)(F)F)c1 [Ostarine (MK-2866)],108
2,CCCN(CCC)C1CCc2ccc(O)cc2C1 (configuration not stated) [7-Hydroxy-DPAT hydrobromide],112
3,CC(=O)Nc1ccc(OC[C@](C)(O)C(=O)Nc2ccc([N+](=O)[O-])c(C(F)(F)F)c2)cc1 [Andarine (GTX-007)],97.6
4,Oc1cc2c(cc1O)[C@H]1c3ccccc3CN[C@@H]1CC2 (racemic) [Dihydrexidine hydrochloride],89.3
5,CC(=O)O[C@H]1C[C@H](O[C@H]2[C@@H](O)C[C@H](O[C@H]3[C@@H](O)C[C@H](O[C@H]4CC[C@@]5(C)[C@H](CC[C@@H]6[C@@H]5C[C@@H](O)[C@]5(C)[C@@H](C7=CC(=O)OC7)CC[C@]65O)C4)O[C@@H]3C)O[C@@H]2C)O[C@H](C)[C@H]1O[C@@H]1O[C@H](CO)[C@@H](O)[C@H](O)[C@H]1O [Lanatoside C],18.1
6,COc1ccc(CCN2CCC(Nc3nc4ccccc4n3Cc3ccc(F)cc3)CC2)cc1 [Astemizole],79.5 ± 1.6
7,CC(N)Cc1c[nH]c2ccc(O)cc12 (configuration not stated) [_-Methyl-5-hydroxytryptamine maleate],107
8,Oc1ccc2c3c1O[C@H]1c4c(c5ccccc5n4Cc4ccccc4)C[C@@]4(O)C(C2)N(CC2CC2)CC[C@]314 [N-Benzylnaltrindole hydrochloride],83.2
9,"BrC1C(Br)C(Br)C(Br)C(Br)C1Br (configuration not stated) [1,2,3,4,5,6-Hexabromocyclohexane]",90.6
10,Fc1ccc(C(OCCN2CCN(CCCc3ccccc3)CC2)c2ccc(F)cc2)cc1,92.6 ± 3.9
11,CC(C)(C)NCC(O)c1cc(Cl)c(N)c(Cl)c1 (configuration not stated) [Clenbuterol hydrochloride],106
12,C=C(C)[C@H]1Cc2c(ccc3c2O[C@@H]2COc4cc(OC)c(OC)cc4[C@@H]2C3=O)O1 [Rotenone],26.3
13,COC(=O)C1=CCCN(C)C1 [Arecoline],107
14,CC(CN)CC(=O)O (configuration not stated) [3-Methyl-GABA],104
15,CNCC(=O)c1ccc(O)c(O)c1 [Adrenalone HCl],101
16,CC(C)N(CCNC(=O)CN1CCCC1=O)C(C)C [Pramiracetam],101
17,CC(C)(c1ccc(OCC2CO2)cc1)c1ccc(OCC2CO2)cc1 (configuration not stated),86.6 ± 6.1
18,CCC1(CC)C(=O)C=CNC1=O [Pyrithyldione],92
19,CCCOc1ccc2[nH]cc(C3=CCNCC3)c2n1,93
20,COc1ccc(Cc2nccc3cc(OC)c(OC)cc23)cc1OC [Papaverine hydrochloride],94
21,O=C1CSC(c2ccccc2Cl)c2cc(Cl)ccc2N1 (configuration not stated),97.8
